Laboratory results: article PMC4336329 (PLoS ONE, 2015)
The whole screen tested about 310,000 compounds, of which about 2,200 (0.71%) showed an effect of 50% or more. Effects have a minus sign here. The list shows a part of the results.

biological target: human ether-à-go-go-related gene (hERG) potassium channel (human, UniProt Q12809); experiment: primary screen, population patch clamp on CHO cells stably expressing hERG
Sequence (Q12809 whole entry, looked up): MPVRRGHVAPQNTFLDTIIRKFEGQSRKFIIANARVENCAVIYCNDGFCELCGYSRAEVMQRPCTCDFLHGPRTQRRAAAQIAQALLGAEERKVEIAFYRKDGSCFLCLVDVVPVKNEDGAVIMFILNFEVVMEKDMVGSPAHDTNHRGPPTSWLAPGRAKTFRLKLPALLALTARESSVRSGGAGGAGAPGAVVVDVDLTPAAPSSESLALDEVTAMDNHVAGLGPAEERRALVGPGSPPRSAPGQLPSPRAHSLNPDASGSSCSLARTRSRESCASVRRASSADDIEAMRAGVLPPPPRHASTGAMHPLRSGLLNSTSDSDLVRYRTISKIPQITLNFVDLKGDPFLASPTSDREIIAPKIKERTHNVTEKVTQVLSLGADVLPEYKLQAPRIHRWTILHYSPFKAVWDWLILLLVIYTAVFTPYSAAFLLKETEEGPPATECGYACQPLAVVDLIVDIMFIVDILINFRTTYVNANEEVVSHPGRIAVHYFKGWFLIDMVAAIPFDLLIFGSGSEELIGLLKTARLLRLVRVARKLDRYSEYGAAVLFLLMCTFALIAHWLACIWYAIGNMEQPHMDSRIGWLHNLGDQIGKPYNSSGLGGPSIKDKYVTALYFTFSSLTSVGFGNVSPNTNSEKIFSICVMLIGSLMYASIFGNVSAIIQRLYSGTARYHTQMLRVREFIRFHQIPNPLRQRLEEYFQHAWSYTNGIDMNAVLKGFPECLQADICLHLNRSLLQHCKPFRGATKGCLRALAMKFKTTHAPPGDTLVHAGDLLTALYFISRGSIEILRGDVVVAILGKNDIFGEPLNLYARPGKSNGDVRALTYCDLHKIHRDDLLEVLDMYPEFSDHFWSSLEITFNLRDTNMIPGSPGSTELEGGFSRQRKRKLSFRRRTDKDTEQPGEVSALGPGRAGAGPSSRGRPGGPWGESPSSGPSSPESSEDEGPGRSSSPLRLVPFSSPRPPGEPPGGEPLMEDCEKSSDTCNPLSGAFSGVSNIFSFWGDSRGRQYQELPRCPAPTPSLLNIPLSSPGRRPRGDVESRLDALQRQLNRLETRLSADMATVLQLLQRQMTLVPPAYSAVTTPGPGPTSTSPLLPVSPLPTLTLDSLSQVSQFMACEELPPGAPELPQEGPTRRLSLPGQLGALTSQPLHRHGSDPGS

Row | Structure (SMILES) | hERG current change (%, negative = inhibition) at 1uM
1 | COc1cc(C(=O)OCC(=O)Nc2ccc(F)cc2F)cc(OC)c1OC | 2.68%
2 | CS(=O)(=O)c1ccccc1C(=O)Nc1nc2ccccc2[nH]1 | 8.41%
3 | Cc1ccc2nc(SCC(=O)c3ccc(O)cc3O)[nH]c2c1 | 3.14%
4 | O=C(c1ccc(F)cc1)N1CCCC(N2CCN(Cc3ccc4c(c3)OCO4)CC2)C1 (stereo not drawn) | 9.31%
5 | O=C(CSc1nc2ccc(Cl)cc2[nH]1)c1ccc2c(c1)OCO2 | 8.5%
6 | Fc1ccccc1N1CCN(C(c2ccncc2)c2nnnn2C2CCCC2)CC1 (stereo not drawn) | -0.501%
7 | COc1ccc(CNC(=O)COC(=O)CCS(=O)(=O)c2ccc(C)cc2)cc1OC | 25.1%
8 | Cc1ccc(S(=O)(=O)NC(CC(C)C)C(=O)NCc2ccco2)cc1 (stereo not drawn) | -5.98%
9 | Cc1cc(SCC(=O)Nc2ccc(O)cc2)n2ncc(-c3ccccc3)c2n1 | 14.5%
10 | CC1C(=O)N(Cc2ccc([N+](=O)[O-])cc2)c2ccccc2N1C(=O)C1CC1 (stereo not drawn) | -3.95%
11 | Cc1cc(Cl)ccc1OCC(=O)NN1C(=O)C2C3C=CC(C3)C2C1=O (stereo not drawn) | 12.2%
12 | O=C(c1ccc2[nH]c(=O)c(=O)[nH]c2c1)N1CCc2ccccc2C1 | 12.2%
13 | O=C(O)c1ccc(CNC(=O)c2ccccc2NC(=O)c2cccc([N+](=O)[O-])c2)cc1 | 13%
14 | CNC(=O)C1CCCN1S(=O)(=O)c1ccc(OC)cc1 (stereo not drawn) | 10.8%
15 | Cc1cc(C(=O)N/N=C2\CC(=O)CC(C)(C)C2)c2ccccc2n1 | 9.36%
16 | COc1ccccc1S(=O)(=O)Cc1ccc(C(=O)N2CCN(c3ccc(C)cc3)C(C)C2)o1 (stereo not drawn) | 0.218%
17 | Cn1ncc2c(Nc3ccc([N+](=O)[O-])cc3)nc(Cl)nc21 | 15.8%
18 | Cn1c(=O)c2c(nc(CN3CCc4ccccc4C3)n2CC(=O)c2ccccc2)n(C)c1=O | 5.11%
19 | COC(=O)CN(c1ccc2c(c1)OCO2)S(=O)(=O)c1c(C)[nH]c(=O)[nH]c1=O | 6.86%
20 | CC(=O)N(C)c1nc(N)n(-c2ccccc2)n1 | 4.73%
21 | CCOC(=O)c1c(N2CCN(c3ccccc3)CC2)cc(C)nc1C.O=C([O-])C(=O)[O-] | -69%
22 | COc1cccc(NC(=O)CN2CCN(c3ccc(F)cc3)CC2)c1 | 2.77%
23 | CCC(C)n1c(O)c(/C=N/N2CCOCC2)c(=O)[nH]c1=S (stereo not drawn) | -0.857%
24 | CCO/N=C(\C)c1c(O)c(CC)c(-c2ccccc2)n(-c2ccccc2)c1=O | 11.9%
25 | O=C1CCCN1CC(=O)N1CCCC(N2CCN(c3cccc(Cl)c3)CC2)C1 (stereo not drawn) | 15.7%
26 | CSc1ccc(COC(=O)CCS(=O)(=O)c2ccc(C)cc2)cc1 | -3.39%
27 | Cc1c(Br)c([N+](=O)[O-])nn1CC(=O)NCCc1c[nH]c2ccccc12 | 6.3%

Row | Structure (SMILES) | hERG current change (%, negative = inhibition) at 1uM
28 | O=C(CCCN1C(=O)c2cccnc2C1=O)Nc1ccc(F)cc1Cl | 11.1%
29 | C[C@@]12C(=O)N(Cc3ccc(Cl)cc3)CC(=O)N1[C@H]1c3ccccc3OC[C@@H]1[C@@H]2c1ccccc1 | 14.7%
30 | CCC(=O)Nc1nnc(S(=O)(=O)N(CC(C)C)c2ccccc2)s1 | 11.1%
31 | COCCNC(=O)c1c[nH]c2ccc(OC)cc2c1=O | -5.88%
32 | Cc1ccc(C(=O)C(C)OC(=O)Cn2[nH]c(=O)c3ccccc3c2=O)cc1 (stereo not drawn) | 18.2%
33 | O=C(O)CCn1cc(C=C2C(=O)NC(=O)NC2=O)c(-c2ccc(Br)cc2)n1 | 12.8%
34 | O=C(OCCNc1nc(-c2ccccc2)nc2ccccc12)c1cccnc1 | -0.797%
35 | COc1cccc(CN(C)C(=O)c2ccc3c(=O)n4c(nc3c2)CCC4)c1OC | 8.59%
36 | CCOC(=O)c1c(N2C(=O)Nc3ccccc3N2O)sc2c1CCCC2 | 8.83%
37 | NC(=O)C1CCCN1 (stereo not drawn) | 12.5%
38 | COCCn1c(=O)[nH]c2cc(C(=O)NCCN3CCN(c4cccc(Cl)c4)CC3)ccc2c1=O | 11.3%
39 | Cc1nc2nc[nH]n2c(=O)c1NC(=O)c1cccc(OCC(C)C)c1 | 10.2%
40 | COc1ccc(C2c3sc(=O)[nH]c3SC3C(=O)N(c4ccccc4)C(=O)C32)cc1 (stereo not drawn) | 12.9%
41 | O=[N+]([O-])c1ccccc1OCCCOc1cccc2cccnc12 | 12.8%
42 | O=C(Nc1ccc(Cl)cc1)Nc1ccc(N2CCCC2)c(S(=O)(=O)Nc2ccccc2Cl)c1 | 6.93%
43 | O=C(COC(=O)c1cc[n+]([O-])cc1)Nc1cccc(Cl)c1Cl | 13.4%
44 | O=C1OCC=C1NNC(=O)c1cccnc1 | 5.09%
45 | Cn1c(Cc2ccc3c(c2)OCO3)nnc1SCC(=O)N1CCc2ccccc2C1 | 0.352%
46 | CC(=O)NCC(=O)N1CCCC(C(=O)c2ccc3c4c(cccc24)CC3)C1 (stereo not drawn) | 11.2%
47 | CCOC(=O)C1CCN(S(=O)(=O)c2cn(C)c(=O)n(C)c2=O)CC1 | 15%
48 | CCOC(=O)C1=C(OCc2ccc(Cl)cc2)C2C=C(C)C=CC2N=C1 (stereo not drawn) | -18.1%
49 | CCOC(=O)CC1=C(C(=O)OCC)C(c2ccc(OC)cc2OC)C(C#N)=C(N)O1 (stereo not drawn) | 13.6%
50 | CC(C)(C)OC(=O)NC1CONC1=O (stereo not drawn) | 10.5%
51 | O=C(CN1CCCN(S(=O)(=O)c2ccc(Br)s2)CC1)Nc1ccc(Cl)cc1 | -10.9%
52 | CCOc1ccc(NC(=O)CN(C)S(=O)(=O)c2ccc3c(c2)CCC(=O)N3)cc1 | -29.5%
53 | Fc1ccc(-n2c(Cc3cccs3)n[nH]c2=S)cc1Cl | 4.01%
54 | CN(Cc1ccccc1)C(=O)[C@@H]1CCCN1S(=O)(=O)c1ccc(Cl)cc1 | 6.37%
